Where “and” joins values, the source holds several entries; their conditions need not be identical. Equal entries are not always repeated.
B1: MB 120 (other)
chain 1: EIVMTQSPATLSVSPGERATLSCRASQSVSSRYLAWYQQKPGQAPRLLIYGASTRATGIPARFSGSGSGTEFTLTISSLQSEDFAVYYCQQYYTTPRTFGQGTRLEIKRTVAAPSVFIFPPSDEQLKSGTASVVCLLNNFYPREAKVQWKVDNALQSGNSQESVTEQDSKDSTYSLSSTLTLSKADYEKHKVYACEVTHQGLSSPVTKSFNRGECGGGGSGGGGSGGGGSGGGGSGGGGSGGGGSGGGGSGGGGSGGGGSGGGGSGGGGSGGGGSGGGGSGGGGSQVQLVQSGAEVKKPGASVKVSCKASGYTFTSYDINWVRQAPGQGLEWMGMIDPSGGSTSYAQKFQGRVTMTRDTSTSTVYMELSSLRSEDTAVYYCAKDFGGGTRYDYWYFDLWGRGTLVTVSSASTKGPSVFPLAPSSKSTSGGTAALGCLVKDYFPEPVTVSWNSGALTSGVHTFPAVLQSSGLYSLSSVVTVPSSSLGTQTYICNVNHKPSNTKVDKKVEPKSCGGGGSGGGGSGGGGSGGGGSGGGGSGG[about 200 residues omitted]
chain 2: [human IgG1 Fc omitted]GGGGSGGGGSGGGGSGGGGSGGGGSGGGGSGGGGSGGGGSGGGGSGGGGSGGGGSGGGGSGGGGSGGGGS[human IgG1 Fc omitted]GGGGSGGGGSGGGGSGGGGSGGGGSGGSSQIRQNYSTDVEAAVNSLVNLYLQASYTYLSLGFYFDRDDVALEGVSHFFRELAEEKREGYERLLKMQNQRGGRALFQDIKKPAEDEW
chain 3: EIVMTQSPATLSVSPGERATLSCRASQSVSSRYLAWYQQKPGQAPRLLIYGASTRATGIPARFSGSGSGTEFTLTISSLQSEDFAVYYCQQYYTTPRTFGQGTRLEIKRTVAAPSVFIFPPSDEQLKSGTASVVCLLNNFYPREAKVQWKVDNALQSGNSQESVTEQDSKDSTYSLSSTLTLSKADYEKHKVYACEVTHQGLSSPVTKSFNRGECGGGGSGGGGSGGGGSGGGGSGGGGSGGGGSGGGGSGGGGSGGGGSGGGGSGGGGSGGGGSGGGGSGGGGSQVQLVQSGAEVKKPGASVKVSCKASGYTFTSYDINWVRQAPGQGLEWMGMIDPSGGSTSYAQKFQGRVTMTRDTSTSTVYMELSSLRSEDTAVYYCAKDFGGGTRYDYWYFDLWGRGTLVTVSSASTKGPSVFPLAPSSKSTSGGTAALGCLVKDYFPEPVTVSWNSGALTSGVHTFPAVLQSSGLYSLSSVVTVPSSSLGTQTYICNVNHKPSNTKVDKKVEPKSCGGGGSGGGGSGGGGSGGGGSGGGGSGGGKTPDAMKAAMALEKKLNQALLDLHALGSARTDPHLCDFLETHFLDEEVKLIKKMGDHLTNLHRLGGPEAGLGEYLFERLTLRHD
B2: MB 108 (other)
chain 1: DIQMTQSPSSLSASVGDRVTITCRASQVITNNLAWYQQKPGKAPKLLIYDASTLETGVPSRFSGSGSGTDFTLTISSLQPEDFATYYCQQSYTFPYTFGQGTKVEIKRTVAAPSVFIFPPSDEQLKSGTASVVCLLNNFYPREAKVQWKVDNALQSGNSQESVTEQDSKDSTYSLSSTLTLSKADYEKHKVYACEVTHQGLSSPVTKSFNRGECGGGGSGGGGSGGGGSGGGGSGGGGSGGGGSGGGGSGGGGSGGGGSGGGGSGGGGSGGGGSGGGGSGGGGSQVQLVQSGAEVKKPGASVKVSCKASGYIFSRYAIHWVRQAPGQGLEWMGWMNPISGNTDYAPNFQGRVTMTRDTSTSTVYMELSSLRSEDTAVYYCAKDGSQLAYLVEYFQHWGQGTLVTVSSASTKGPSVFPLAPSSKSTSGGTAALGCLVKDYFPEPVTVSWNSGALTSGVHTFPAVLQSSGLYSLSSVVTVPSSSLGTQTYICNVNHKPSNTKVDKKVEPKSCGGGGSGGGGSGGGGSGGGGSGGGGSGG[about 200 residues omitted]
chain 2: [human IgG1 Fc omitted]GGGGSGGGGSGGGGSGGGGSGGGGSGGGGSGGGGSGGGGSGGGGSGGGGSGGGGSGGGGSGGGGSGGGGS[human IgG1 Fc omitted]GGGGSGGGGSGGGGSGGGGSGGGGSGGSSQIRQNYSTDVEAAVNSLVNLYLQASYTYLSLGFYFDRDDVALEGVSHFFRELAEEKREGYERLLKMQNQRGGRALFQDIKKPAEDEW
chain 3: DIQMTQSPSSLSASVGDRVTITCRASQVITNNLAWYQQKPGKAPKLLIYDASTLETGVPSRFSGSGSGTDFTLTISSLQPEDFATYYCQQSYTFPYTFGQGTKVEIKRTVAAPSVFIFPPSDEQLKSGTASVVCLLNNFYPREAKVQWKVDNALQSGNSQESVTEQDSKDSTYSLSSTLTLSKADYEKHKVYACEVTHQGLSSPVTKSFNRGECGGGGSGGGGSGGGGSGGGGSGGGGSGGGGSGGGGSGGGGSGGGGSGGGGSGGGGSGGGGSGGGGSGGGGSQVQLVQSGAEVKKPGASVKVSCKASGYIFSRYAIHWVRQAPGQGLEWMGWMNPISGNTDYAPNFQGRVTMTRDTSTSTVYMELSSLRSEDTAVYYCAKDGSQLAYLVEYFQHWGQGTLVTVSSASTKGPSVFPLAPSSKSTSGGTAALGCLVKDYFPEPVTVSWNSGALTSGVHTFPAVLQSSGLYSLSSVVTVPSSSLGTQTYICNVNHKPSNTKVDKKVEPKSCGGGGSGGGGSGGGGSGGGGSGGGGSGGGKTPDAMKAAMALEKKLNQALLDLHALGSARTDPHLCDFLETHFLDEEVKLIKKMGDHLTNLHRLGGPEAGLGEYLFERLTLRHD
B3: MB 178 (other)
chain 1: EIVMTQSPATLSVSPGERATLSCKASQSVSGTYLAWYQQKPGQAPRLLIYGASTRATGIPARFSGSGSGTEFTLTISSLQSEDFAVYYCLQTHSYPPTFGQGTKVEIKRTVAAPSVFIFPPSDEQLKSGTASVVCLLNNFYPREAKVQWKVDNALQSGNSQESVTEQDSKDSTYSLSSTLTLSKADYEKHKVYACEVTHQGLSSPVTKSFNRGECGGGGSGGGGSGGGGSGGGGSGGGGSGGGGSGGGGSGGGGSGGGGSGGGGSGGGGSGGGGSGGGGSGGGGSQVQLVQSGAEVKKPGASVKVSCKASGYTFTDYHMHWVRQAPGQGLEWMGWINPNSGGTNYAQKFQGRVTMTRDTSTSTVYMELSSLRSEDTAVYYCARDISSWYEITKFDPWGQGTLVTVSSASTKGPSVFPLAPSSKSTSGGTAALGCLVKDYFPEPVTVSWNSGALTSGVHTFPAVLQSSGLYSLSSVVTVPSSSLGTQTYICNVNHKPSNTKVDKKVEPKSCGGGGSGGGGSGGGGSGGGGSGGGGSGG[about 200 residues omitted]
chain 2: [human IgG1 Fc omitted]GGGGSGGGGSGGGGSGGGGSGGGGSGGGGSGGGGSGGGGSGGGGSGGGGSGGGGSGGGGSGGGGSGGGGS[human IgG1 Fc omitted]GGGGSGGGGSGGGGSGGGGSGGGGSGGSSQIRQNYSTDVEAAVNSLVNLYLQASYTYLSLGFYFDRDDVALEGVSHFFRELAEEKREGYERLLKMQNQRGGRALFQDIKKPAEDEW
chain 3: EIVMTQSPATLSVSPGERATLSCKASQSVSGTYLAWYQQKPGQAPRLLIYGASTRATGIPARFSGSGSGTEFTLTISSLQSEDFAVYYCLQTHSYPPTFGQGTKVEIKRTVAAPSVFIFPPSDEQLKSGTASVVCLLNNFYPREAKVQWKVDNALQSGNSQESVTEQDSKDSTYSLSSTLTLSKADYEKHKVYACEVTHQGLSSPVTKSFNRGECGGGGSGGGGSGGGGSGGGGSGGGGSGGGGSGGGGSGGGGSGGGGSGGGGSGGGGSGGGGSGGGGSGGGGSQVQLVQSGAEVKKPGASVKVSCKASGYTFTDYHMHWVRQAPGQGLEWMGWINPNSGGTNYAQKFQGRVTMTRDTSTSTVYMELSSLRSEDTAVYYCARDISSWYEITKFDPWGQGTLVTVSSASTKGPSVFPLAPSSKSTSGGTAALGCLVKDYFPEPVTVSWNSGALTSGVHTFPAVLQSSGLYSLSSVVTVPSSSLGTQTYICNVNHKPSNTKVDKKVEPKSCGGGGSGGGGSGGGGSGGGGSGGGGSGGGKTPDAMKAAMALEKKLNQALLDLHALGSARTDPHLCDFLETHFLDEEVKLIKKMGDHLTNLHRLGGPEAGLGEYLFERLTLRHD
B4: MB 64 (other)
chain 1: DIQMTQSPSSLSASVGDRVTITCRASQGISSHLAWYQQKPGKAPKLLIYDASNLETGVPSRFSGSGSGTDFTLTISSLQPEDFATYYCQQTYSTPWTFGQGTKVEIKRTVAAPSVFIFPPSDEQLKSGTASVVCLLNNFYPREAKVQWKVDNALQSGNSQESVTEQDSKDSTYSLSSTLTLSKADYEKHKVYACEVTHQGLSSPVTKSFNRGECGGGGSGGGGSGGGGSGGGGSGGGGSGGGGSGGGGSGGGGSGGGGSGGGGSGGGGSGGGGSGGGGSGGGGSEVQLLESGGGLVQPGGSLRLSCAASGFPFSQHGMHWVRQAPGKGLEWVSAIDRSGSYIYYADSVKGRFTISRDNSKNTLYLQMNSLRAEDTAVYYCARDTYGGKVTYFDYWGQGTLVTVSSASTKGPSVFPLAPSSKSTSGGTAALGCLVKDYFPEPVTVSWNSGALTSGVHTFPAVLQSSGLYSLSSVVTVPSSSLGTQTYICNVNHKPSNTKVDKKVEPKSCGGGGSGGGGSGGGGSGGGGSGGGGSGG[about 200 residues omitted]
chain 2: [human IgG1 Fc omitted]GGGGSGGGGSGGGGSGGGGSGGGGSGGGGSGGGGSGGGGSGGGGSGGGGSGGGGSGGGGSGGGGSGGGGS[human IgG1 Fc omitted]GGGGSGGGGSGGGGSGGGGSGGGGSGGSSQIRQNYSTDVEAAVNSLVNLYLQASYTYLSLGFYFDRDDVALEGVSHFFRELAEEKREGYERLLKMQNQRGGRALFQDIKKPAEDEW
chain 3: DIQMTQSPSSLSASVGDRVTITCRASQGISSHLAWYQQKPGKAPKLLIYDASNLETGVPSRFSGSGSGTDFTLTISSLQPEDFATYYCQQTYSTPWTFGQGTKVEIKRTVAAPSVFIFPPSDEQLKSGTASVVCLLNNFYPREAKVQWKVDNALQSGNSQESVTEQDSKDSTYSLSSTLTLSKADYEKHKVYACEVTHQGLSSPVTKSFNRGECGGGGSGGGGSGGGGSGGGGSGGGGSGGGGSGGGGSGGGGSGGGGSGGGGSGGGGSGGGGSGGGGSGGGGSEVQLLESGGGLVQPGGSLRLSCAASGFPFSQHGMHWVRQAPGKGLEWVSAIDRSGSYIYYADSVKGRFTISRDNSKNTLYLQMNSLRAEDTAVYYCARDTYGGKVTYFDYWGQGTLVTVSSASTKGPSVFPLAPSSKSTSGGTAALGCLVKDYFPEPVTVSWNSGALTSGVHTFPAVLQSSGLYSLSSVVTVPSSSLGTQTYICNVNHKPSNTKVDKKVEPKSCGGGGSGGGGSGGGGSGGGGSGGGGSGGGKTPDAMKAAMALEKKLNQALLDLHALGSARTDPHLCDFLETHFLDEEVKLIKKMGDHLTNLHRLGGPEAGLGEYLFERLTLRHD

Legend:
[1] = biological target: T1, SARS-CoV-2 Spike on wild-type pseudotyped virus (PsV) (SARS-CoV-2); assay: cell-based or functional assay
[2] = biological target: T1, SARS-CoV-2 Spike on wild-type …; assay: cell-based or functional assay; remark: listed apart in the source

Binder | IC50 SARS-CoV2 PsV (MB) [1] [µg/mL] | Median IC50 [2]
B1 | 7.2 | 7.2 µg/mL and 3.1 nM
B2 | 0.37 | 0.37 µg/mL and 161 pM
B3 | 1.7 | 1.7 µg/mL and 0.74 nM
B4 | 14 | 14 µg/mL and 6.1 nM

Source: US20250002564A1 (HOSPITAL FOR SICK CHILDREN, published 2025)
